The values below come from the supplement of paper PMC4723716.

Structures are written as SMILES. ± gives the uncertainty stated by the source. In all, about 9,900 compounds were measured (“viability index relative to DMSO control”: median about 1, lowest 2% from about 0.85 on). Some of the results follow.

For this assay, the system named is Plasmodium falciparum NF54 stage V gametocytes. The assay is described as follows: viability index relative to DMSO control (fraction); higher = less gametocyte killing. Particulars: 2.5 µM, library set: Broad Institute DOS, incubation time: 72 h. An outline of the steps: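 Stage V gametocytes of P. falciparum NF54 were held in serum-free screening medium at 0.75% gametocytemia and 1.25% hematocrit, 10 µl per well of a 1,536-well plate, and exposed to compound at 2.5 µM for 72 hr at 37°C under low oxygen. A 3 µl mix of 2.5 µM MitoTracker Red CMXRos with 0.13% saponin was then added for one to two hours, after which one field per well was imaged and red particles of 20–70 µm2 were counted. The viability index equals this count divided by the plate mean from wells given solvent alone.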
`N#C[C@H]1[C@H](c2ccccc2C2=CCCCC2)[C@@H](CO)N1C(=O)CN1CCOCC1` had a viability index of 1.05 ± 0.2.
The value for `CO[C@@H](CN(C)Cc1ccc2c(c1)OCO2)[C@@H](C)CN(C(=O)c1ccccc1)[C@@H](C)CO` was 1.059 ± 0.0076; that for `COc1ccc(NC(=O)N(C)C[C@@H]2Oc3ccc(NC(=O)CCN4CCOCC4)cc3C(=O)N([C@H](C)CO)C[C@@H]2C)cc1` was 1.08 ± 0.1; that for `CCCC(=O)Nc1ccc2c(c1)OC[C@H](C)N(CC1CCOCC1)C[C@@H](C)[C@H](OC)CN(C)C2=O` was 1.02 ± 0.039.
Then `CO[C@@H]1CN(C)C(=O)c2ccc(NC(=O)Nc3ccccc3F)cc2OC[C@@H](C)N(CC2CC2)C[C@H]1C`, with 0.948 ± 0.086.
With `COCC#Cc1ccc([C@H]2[C@@H](CO)N3CCCCN(Cc4cccnc4)C[C@@H]23)cc1`, the viability index was 1.05 ± 0.1.
`CN1C(=O)c2cc(NS(=O)(=O)CC(F)(F)F)ccc2OC[C@H]2O[C@@H](CC(=O)Nc3cccc(F)c3)CC[C@@H]21`: the viability index stood at 1.16 ± 0.071.
`COc1ccc(NC(=O)N(C)C[C@H]2OCc3ccccc3-c3ccccc3C(=O)N([C@@H](C)CO)C[C@@H]2C)c(OC)c1`: the viability index is 1.09 ± 0.092.
The compound `CCS(=O)(=O)N1C[C@@]2(C1)CN([C@@H](CO)c1[nH]c3cc(OC)ccc3c21)C(=O)Cc1ccccn1` returned a viability index of 0.9811 ± 0.0084.
As for `Cc1noc(C)c1NC(=O)N(C)C[C@@H]1Oc2ccc(NC(=O)Cc3cn(C)c4ccccc34)cc2CC(=O)N([C@@H](C)CO)C[C@H]1C`, the viability index is 0.979 ± 0.024.
Then `COc1ccc2c3c([C@@H](CO)N(CC4CC4)C[C@]33CN(C3)C(=O)Nc3ccc(F)cc3F)n(C)c2c1`, with 0.988 ± 0.11; and `CN1C(=O)c2cc(NC(=O)C3CCOCC3)ccc2OC[C@@H]2O[C@@H](CC(=O)NCCc3ccncc3)CC[C@H]21`, with 1.12 ± 0.13.
Regarding `CO[C@H](CN(C)S(=O)(=O)c1cccc(Cl)c1)[C@H](C)CN(C(=O)Nc1ccccc1F)[C@@H](C)CO`, the viability index came to 1.07 ± 0.064.
Compound `Cc1noc(C)c1S(=O)(=O)Nc1ccc2c(c1)C(=O)N([C@@H](C)CO)C[C@H](C)[C@@H](CN(C)C(=O)NC1CCCCC1)O2` yielded a viability index of 1.08 ± 0.04.
Then `CN1C(=O)c2cc(NC(=O)C3CCOCC3)ccc2OC[C@H]2O[C@@H](CC(=O)NCCc3ccncc3)CC[C@H]21`, with 1.146 ± 0.01.
As to `COc1ccc(S(=O)(=O)N(C)C[C@H]2Oc3c(NC(=O)c4nc5ccccc5s4)cccc3C(=O)N([C@@H](C)CO)C[C@@H]2C)cc1`, the viability index worked out at 0.9919 ± 0.0082.
Take `CCCNC(=O)Nc1ccc2c(c1)OC[C@@H](C)N(C(=O)C1CCOCC1)C[C@@H](C)[C@@H](OC)CN(C)C2=O`: the viability index was found to be 1.075 ± 0.0076.
The value for `CCC(=O)N1[C@H](CN(CC)C(=O)c2cccc(F)c2)[C@@H](c2ccccc2)[C@@H]1CO` was 1.09 ± 0.031; that for `CCCNC(=O)C[C@@H]1CC[C@@H]2[C@H](COC[C@H](O)CN2C(=O)c2ccc(F)cc2)O1` was 1.03 ± 0.1; that for `COc1ccc(C#Cc2ccc([C@H]3[C@H](CO)N4C(=O)CN(C(=O)NC(C)C)C[C@@H]34)cc2)cc1` was 1.087 ± 0.0045.
Then `C[C@H](CO)N1C[C@H](C)[C@H](CN(C)Cc2ccncc2)OCCCC[C@H](C)Oc2ccc(NS(=O)(=O)c3ccc(Cl)cc3)cc2C1=O`, with 1.04 ± 0.073; and `COCC#Cc1ccc([C@H]2[C@@H](CO)N3C(=O)CN(C(=O)Nc4ccccc4F)C[C@H]23)cc1`, with 1.008 ± 0.0016.
Compound `N#Cc1cccc(-c2ccc([C@H]3[C@@H]4CNC[C@H]3N4)cc2)c1` yielded a viability index of 1.01 ± 0.057.
As for `CO[C@@H](CN(C)C(=O)Nc1ccc(Cl)cc1)[C@H](C)CN(Cc1ccccc1Cl)[C@H](C)CO`, the viability index turned out to be 1.07 ± 0.085.
As for `O=C(C[C@@H]1C=C[C@@H](NC(=O)c2ccncc2)[C@H](CO)O1)NCC1CC1`, the viability index was 1.09 ± 0.067.
Regarding `C[C@H]1CN([C@@H](C)CO)C(=O)c2ccccc2-c2ccccc2CO[C@H]1CN(C)C(=O)c1cc(Cl)cc(Cl)c1`, the viability index is 0.884 ± 0.0063.
For the compound `CNC[C@H]1OCCCC[C@@H](C)Oc2ccc(NC(=O)Nc3ccc(OC)cc3)cc2C(=O)N([C@@H](C)CO)C[C@H]1C`, the viability index was 1.05 ± 0.023.
The value for `N#C[C@H]1[C@H](c2ccc(C#Cc3ccccc3F)cc2)[C@@H](CO)N1C(=O)c1cccnc1` was 1.02 ± 0.033.
Then `CN1C(=O)c2cc(NS(=O)(=O)c3ccccc3F)ccc2OC[C@@H]2O[C@@H](CC(=O)NC3Cc4ccccc4C3)CC[C@H]21`, with 1.09 ± 0.025.
`C[C@@H]1CN([C@@H](C)CO)C(=O)c2cc(N(C)C)ccc2O[C@@H](C)CCCCO[C@@H]1CN(C)Cc1ccc(C(=O)O)cc1`: the viability index turned out to be 1.1 ± 0.099.
In the case of `CO[C@H]1CN(C)C(=O)c2cc(NC(=O)NC(C)C)ccc2OC[C@@H](C)N(C(=O)CN(C)C)C[C@H]1C`, the viability index was found to be 1.03 ± 0.043.
`C(=C\c1ccc([C@@H]2[C@@H]3CN(Cc4cocn4)C[C@H]2N3)cc1)/c1ccccc1` returned a viability index of 0.889 ± 0.012.
Turning to `COc1ccc([C@@H]2C/C=C/C[C@@H](C)Oc3ccccc3C(=O)N(C)[C@H](C(C)C)C(=O)N2)c(OC)c1.COc1ccc([C@@H]2C/C=C\C[C@@H](C)Oc3ccccc3C(=O)N(C)[C@H](C(C)C)C(=O)N2)c(OC)c1`, the viability index came to 1.06 ± 0.033.
Compound `COc1ccc(-c2ccc([C@@H]3[C@@H](CO)N4C(=O)CN(C(=O)C5CC5)C[C@@H]34)cc2)cc1` returned a viability index of 1.01 ± 0.013.
Regarding `O=C1CCC(=O)NCC/C=C/CCN1`, the viability index stood at 1.09 ± 0.052.
`Cc1noc(C)c1S(=O)(=O)N(C)C[C@H]1OCCCC[C@@H](C)Oc2ccc(N(C)C)cc2C(=O)N([C@H](C)CO)C[C@@H]1C` showed a viability index of 1.02 ± 0.029.
On to `C[C@@H]1CCCCO[C@H](CN(C)C(=O)Nc2cccc3ccccc23)[C@@H](C)CN([C@H](C)CO)C(=O)c2cc(NC(=O)CCC(F)(F)F)ccc2O1`, for which the viability index amounted to 1.03 ± 0.025.
The compound `C/C=C/c1ccc([C@@H]2[C@H](CO)N(CC3CCOCC3)C23CN(C(=O)COC)C3)cc1` gave a viability index of 1.08 ± 0.027.
For `C[C@@H]1CN([C@@H](C)CO)C(=O)c2cc(NS(=O)(=O)c3ccccc3)ccc2O[C@@H](C)CCCCO[C@H]1CN(C)C(=O)C1CCCCC1`, the viability index turned out to be 1.06 ± 0.021.
Consider `N#C[C@H]1[C@H](c2ccccc2-c2ccccc2F)[C@@H](CO)N1C(=O)Cc1ccccc1`, for which the viability index is 1.06 ± 0.049.
Consider `COc1ccccc1S(=O)(=O)N1C[C@@H]2N[C@H](C1)[C@@H]2c1ccc(-c2cccnc2)cc1`, for which the viability index turned out to be 1.05 ± 0.057.
With `COc1ccc(-c2ccc([C@H]3[C@@H]4CN(C(=O)c5ccc(F)cc5)C[C@H]3N4)cc2)cc1`, the viability index was 1.058 ± 0.0098.
As to `C[C@@H]1CC(=O)NCC/C=C\C[C@@H](c2cccc(Cl)c2)NC1=O`, the viability index came out at 1.059 ± 0.01.
`COc1ccc2c3c([C@@H](CO)N(C[C@]33CN(C3)C(=O)NC(C)C)C(=O)CC3CC3)n(C)c2c1` gave a viability index of 0.904 ± 0.037.
`CO[C@H]1CN(C)C(=O)c2cc(NS(C)(=O)=O)ccc2OC[C@@H](C)N(C(=O)C2CCOCC2)C[C@H]1C`: the viability index amounted to 1.08 ± 0.044.
`O=C(c1cnccn1)N1C[C@@H]2N[C@H](C1)[C@H]2c1ccc(/C=C/c2ccccc2)cc1` had a viability index of 1.07 ± 0.026.
The value for `CN(C)CC(=O)N1C[C@@H]2N[C@H](C1)[C@@H]2c1ccc(-c2ccccc2F)cc1` was 0.745 ± 0.074.
Then `Cc1noc(C)c1NC(=O)N(C)C[C@H]1Oc2ccc(NC(=O)Cc3cn(C)c4ccccc34)cc2CC(=O)N([C@H](C)CO)C[C@H]1C`, with 1.02 ± 0.061.
As to `COc1ccc2c3c([C@H](CO)NC[C@]33CCN(Cc4ccncc4)CC3)n(C)c2c1`, the viability index turned out to be 1.03 ± 0.022.
In the case of `CCC(=O)N1[C@H](CO)[C@H](c2ccccc2)C12CN(C(=O)CN1CCOCC1)C2`, the viability index was found to be 1.02 ± 0.097.
The value for `COCC(=O)N1C[C@@H](C)[C@H](OC)CN(C)C(=O)c2ccc(NC(=O)Nc3cccc(F)c3)cc2OC[C@H]1C` was 1.01 ± 0.055; that for `O=C(Cc1ccccc1)N1CC[C@@H]2[C@@H](CO)Nc3ccc(C#Cc4cccc(F)c4)cc3[C@@H]21` was 1.1 ± 0.022.
Take `CO[C@H](CN(C)C(=O)c1ccccc1F)[C@H](C)CN([C@@H](C)CO)S(=O)(=O)c1ccc(F)cc1`: the viability index amounted to 0.976 ± 0.058.
The value for `C[C@@H]1CN([C@@H](C)CO)C(=O)c2cc(NC(=O)CCC(F)(F)F)ccc2O[C@@H](C)CCCCO[C@@H]1CN(C)C(=O)Nc1cccc2ccccc12` was 0.734 ± 0.082.
`C[C@H]1CN([C@@H](C)CO)C(=O)c2ccccc2-c2ccccc2CO[C@@H]1CN(C)C(=O)[C@@H]1CCCN1C` displayed a viability index of 0.946 ± 0.043.
On to `N#C[C@H]1[C@@H](c2ccccc2C2=CCCC2)[C@H](CO)N1S(=O)(=O)c1cccc(F)c1`, for which the viability index is 1.06 ± 0.056.
Compound `CN(C)CC(=O)N1[C@H](C#N)[C@H](c2ccc(-c3cccc(C(=O)N(C)C)c3)cc2)[C@H]1CO` registered a viability index of 1.09 ± 0.066.
As for `CN(C)CC(=O)N1[C@H](C#N)[C@@H](c2ccccc2-c2ccccc2F)[C@@H]1CO`, the viability index is 1.15 ± 0.13.
`C[C@@H]1CN([C@H](C)CO)C(=O)CCCn2cc(nn2)CO[C@H]1CN(C)C(=O)Nc1ccc2c(c1)OCO2`: the viability index worked out at 1.05 ± 0.042.
The value for `O=C(CC1CC1)N1CC2(C1)[C@@H](c1ccccc1)[C@H](CO)N2C(=O)c1ccccn1` was 1 ± 0.013; that for `COc1ccc2c3c([nH]c2c1)[C@H](CO)NC[C@]31CN(C1)C(=O)Nc1c(C)noc1C` was 1.081 ± 0.0086; that for `C[C@@H]1CCCCO[C@H](CN(C)S(=O)(=O)c2cn(C)cn2)[C@H](C)CN([C@@H](C)CO)C(=O)c2cc(NC(=O)Nc3cccc4ccccc34)ccc2O1` was 0.971 ± 0.037.
Compound `C[C@H](CO)N1C[C@H](C)[C@H](CN(C)S(=O)(=O)c2cn(C)cn2)OCCCC[C@H](C)Oc2ccc(N(C)C)cc2C1=O` had a viability index of 1.02 ± 0.029.
Take `Cc1ccccc1-c1ccc([C@H]2[C@H]3CN(C(=O)Nc4cccc(F)c4)CC(=O)N3[C@H]2CO)cc1`: the viability index is 1.003 ± 0.0018.
In turn, `CO[C@@H]1CC[C@H]2CCOc3ccc(C#N)cc3C(=O)N(C)[C@H](C)C(=O)N(C)C[C@@H]1O2` came in with a viability index of 0.956 ± 0.017.
In the case of `O=C(C[C@@H]1CC[C@H](NC(=O)c2ccc3c(c2)OCO3)[C@@H](CO)O1)NCc1ccc(Oc2ccccc2)cc1`, the viability index came to 1.06 ± 0.021.
In the case of `COc1ccc(S(=O)(=O)Nc2ccc3c(c2)C(=O)N([C@H](C)CO)C[C@@H](C)[C@H](CN(C)Cc2ccc(C(F)(F)F)cc2)OCCCC[C@@H](C)O3)cc1`, the viability index was determined as 0.898 ± 0.12.
Take `C[C@@H]1C/C=C/C[C@@H](c2ccc3c(c2)OCO3)NC(=O)[C@H](C)N(C)C(=O)c2ccccc2O1.C[C@@H]1C/C=C\C[C@@H](c2ccc3c(c2)OCO3)NC(=O)[C@H](C)N(C)C(=O)c2ccccc2O1`: the viability index is 0.983 ± 0.038.
